From the supplement of paper PMC11417369
This is one part of the list.

system: PfHDP1 homeodomain (GST-tagged); experiment: gcPBM binding intensity (ln(normalized median fluorescence intensity)); higher = stronger DNA binding
Method in brief: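 Each value is the highest Masliner-normalised natural-log median intensity across replicate spots of either orientation of a probe. The probes were primer-extended double-stranded 36-bp intergenic genomic sequences on an Agilent 4 × 180k array, alongside negative controls, exposed for 1 h to GST-tagged P. falciparum DNA-binding domains expressed in E. coli. Bound protein was picked up with Alexa488 anti-GST antibody and scanned at 488 nm.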

| Sequence | gcPBM binding intensity (ln) |
| --- | --- |
| TATTTTTAATAAAAACGTACGGAATACAAAAAAAAT [XGTACX_site3477] | 7.12 |
| TAAAATTTATAAACTACACACATATAAATAGTAATA [CACACA_site7708] | 6.42 |
| TATATACATTGGTATACATGCATTCTCTTTCATACA [TGCATGCA_site734] | 6.57 |
| TAAACACCCATATAAACACACATATAAACACCCATA [CACACA_site5382] | 6.92 |
| TTTATTTATTTTTAACGTACGCACACATATAAATAT [XGTACX_site4042] | 7.14 |
| TATATATATATATATACACACACACTAATAAAAAAA [CACACA_site8426] | 9.3 |
| CTTAGATATAAAAATTGTACATACATATTTTTGACA [XGTACX_site2107] | 6.25 |
| ATTTTTTAAATGAGGCGTACACAAAAATATAATTAC [XGTACX_site7087] | 7.14 |
| TTTTTTTCGTAAAAAAAAATAATTATTAAATGAAGG [TGCATGCA_negctrl_site212] | 6.64 |
| ACAGAAAAAAGACACACACACATAATATACATACAT [CACACA_site6991] | 6.85 |
| TCATTCGAATAAATTGCACACATGACATCCGTTGTA [CACACA_site2587] | 9.23 |
| ATATATATATTAATTACACACAAAAAAAAAAAAAAA [CACACA_site1165] | 7.49 |
| AAAAAAAAAAAAAATATACACACTAATATATTTTTT [CACACA_site815] | 6.69 |
| TATTAATAATATAATAGTACTTTCACTGTAAATTTA [XGTACX_site6419] | 6.05 |
| TATATACAGATATATACACACATATTTATATTTTAT [CACACA_site7734] | 6.41 |
| GTATAGAGAAAAAACTGTACTTTATATAAATATTTA [XGTACX_site3972] | 5.95 |
| AAGAATATATAGGACACACATACAATAATAAATATA [CACACA_site4119] | 6.77 |
| TATCCTACATTAACAAGTACAAAGAGATCCTACGTA [XGTACX_site4252] | 6.16 |
| TTTCTCCATATTAAAGTGCATTAATAACAAAAATAA [GTGCAC_site9934] | 8.23 |
| AACGCCACTTCAATGGCACACACCAATTATTTTTCA [CACACA_site1026] | 6.31 |
| GCCATTAATTTATACACACACATTAAAATTTTTTAT [CACACA_site4575] | 7.61 |
| ATATATAATAATATATGTACATAATATTTTTTTTTT [XGTACX_site1941] | 6.37 |

| Sequence | gcPBM binding intensity (ln) |
| --- | --- |
| TAATGAAGATATATAACACACAAAAGTTATAAATAT [CACACA_site6678] | 6.31 |
| GCTATAAATACAGACGCACACATATACATACATATA [CACACA_site3329] | 7.21 |
| AAAAAAAAAAAAAAAAAATAATAAAAAATAAAAAAA [GTGCAC_negctrl_site341] | 6.46 |
| ATATATATAAAATAAAGTACCCGTAAAACCTATATG [XGTACX_site6937] | 6.8 |
| TAATTATAAAAATAAAACAACCAAATTTGTTATATA [CACACA_negctrl_site750] | 6.31 |
| TAATTTATAAATAATTGTACATAGTTTATTTAGATT [XGTACX_site4599] | 6.07 |
| GAAAGGAAAAGTTGAACACACAAAGTAAACTATAAG [CACACA_site3535] | 6.55 |
| TATGTTAATCCTATTTGTACATATAATCGAATTAAA [XGTACX_site7090] | 6.35 |
| GACGACTATATTAATTGTACTCAATTTAAGCATAAT [XGTACX_site2750] | 6.27 |
| AGATTGAAATATAGTTGTACAAATATTTTAAAACAT [XGTACX_site3026] | 6.92 |
| CAATCAACAAAACATACACACACATATATATATATA [CACACA_site8979] | 9.12 |
| TTGTTCCAATAAAATCGTACAATTAAACAACCAAAC [XGTACX_site5759] | 7.18 |
| TTTTTTTCTATAATACACCAGAAAAAAAAATTAAAA [TGCATGCA_negctrl_site257] | 6.5 |
| TTAAAATTAAAAATAGGTACACATATGAACAAGGAC [XGTACX_site1180] | 7.69 |
| TTATATGATATATGACGTACATATTAATAACATCTA [XGTACX_site6716] | 6.22 |
| TGTAATATTTTATAAAGTACATTATAATATAATTCA [XGTACX_site2961] | 6.04 |
| CAAGAACAAAAAATATGTACATATAATTATATATAT [XGTACX_site2082] | 7.01 |
| CATATCTCTTATTAATGTACATTTTTAAAAGTAAAT [XGTACX_site2847] | 6.5 |
| TTTATATAATGGAAAAGTACTCAGGAAATTTATACA [XGTACX_site3635] | 6.46 |
| CTTTTTTTTATGAACAGTACAGAAATATATATATAC [XGTACX_site5613] | 6.63 |
| TTATTACATATAAAGGAAAATAGCATCTAGATTAAA [XGTACX_negctrl_site435] | 6.36 |
| TCTTTTTTGAACTAGCGTACATGAAAATATTTATAG [XGTACX_site7359] | 6.38 |
